The values that follow are results of earlier work, collected in article PMC11006913.

Some of the results follow.

In this data set the target is HOXD13 I322L (Homo sapiens) (UniProt P35453). Conditions: PBM; conditions not shown; double strand, one strand shown; scale: upbm affinity estimate (log intensity, higher = more binding, comparable within an allelic series).
Sequence of UniProt P35453 (P35453 263-343 I322L): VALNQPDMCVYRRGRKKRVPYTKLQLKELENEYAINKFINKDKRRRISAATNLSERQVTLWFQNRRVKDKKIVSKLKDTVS
For the sequence TATTTAAA [8-mer TATTTAAA], the binding signal is 12.1.
For CTCGTGAA [8-mer CTCGTGAA], the binding signal is 12.
Regarding TGCGTAAA [8-mer TGCGTAAA], the binding signal is 11.8.
Turning to CCGTAAAA [8-mer CCGTAAAA], the binding signal was 12.1.
In the case of TGTCGTAA [8-mer TGTCGTAA], the binding signal is 11.7.
As for GGTCGTAA [8-mer GGTCGTAA], the binding signal was 11.8.
On to CTTTACAA [8-mer CTTTACAA], for which the binding signal is 11.8.
On to GTCGTTAA [8-mer GTCGTTAA], for which the binding signal was 12.2.
With TGTAAAAA [8-mer TGTAAAAA], the binding signal was 11.8.
For the sequence AGTTTACA [8-mer AGTTTACA], the binding signal was 11.8.
In the case of ATTACAAG [8-mer ATTACAAG], the binding signal is 11.9.
In the case of GTAGTAAA [8-mer GTAGTAAA], the binding signal is 12.
Consider TGTTAAAA [8-mer TGTTAAAA], for which the binding signal was 11.8.
In the case of CATTAAAA [8-mer CATTAAAA], the binding signal was 11.9.
As to ATAGTAAA [8-mer ATAGTAAA], the binding signal is 11.8.
In the case of TTGTTAAA [8-mer TTGTTAAA], the binding signal is 12.1.
For AATTACGA [8-mer AATTACGA], the binding signal was 11.8.
CTCGTATA [8-mer CTCGTATA]: the binding signal was 11.9.
Turning to CTAGTTAA [8-mer CTAGTTAA], the binding signal was 11.8.
In the case of CCTTGTAA [8-mer CCTTGTAA], the binding signal is 12.1.
Consider TAGTTAAA [8-mer TAGTTAAA], for which the binding signal was 11.8.
In the case of GCTTGTAA [8-mer GCTTGTAA], the binding signal is 12.
In the case of CGTAAACC [8-mer CGTAAACC], the binding signal was 11.9.
Take CATCGTAA [8-mer CATCGTAA]: the binding signal is 11.8.
As for CATTTAAA [8-mer CATTTAAA], the binding signal was 11.7.
Regarding CGTAAAAG [8-mer CGTAAAAG], the binding signal is 11.9.
Regarding GCTGTAAA [8-mer GCTGTAAA], the binding signal is 11.9.
For the sequence ATTTACGG [8-mer ATTTACGG], the binding signal is 11.9.
CTTGTTAA [8-mer CTTGTTAA]: the binding signal was 12.3.
For the sequence CGTTAAAC [8-mer CGTTAAAC], the binding signal is 11.9.
For CTTGTAAC [8-mer CTTGTAAC], the binding signal was 12.
Turning to CAGTAAAA [8-mer CAGTAAAA], the binding signal was 11.8.
Take CCGTAAAC [8-mer CCGTAAAC]: the binding signal was 12.
With ATTTACAG [8-mer ATTTACAG], the binding signal was 11.9.
Turning to ATTGTTAA [8-mer ATTGTTAA], the binding signal is 12.
As for ATTTAACA [8-mer ATTTAACA], the binding signal is 11.9.
Consider GTTTACAA [8-mer GTTTACAA], for which the binding signal was 12.2.
In the case of AGTTACGA [8-mer AGTTACGA], the binding signal was 11.8.
Take CTTAACGA [8-mer CTTAACGA]: the binding signal was 11.8.
With ATTTTACA [8-mer ATTTTACA], the binding signal was 12.
